Data taken from PMC4336329 (PLoS ONE, 2015).
In all, about 310,000 compounds went through this assay and about 2,200 (0.71%) showed an effect of 50% or more. Effects have a minus sign here. The list shows a part of the results.

Target: human ether-à-go-go-related gene (hERG) potassium channel (human, UniProt Q12809)
Assay: primary screen, population patch clamp on CHO cells stably expressing hERG

Chain of human ether-à-go-go-related gene (hERG) potassium channel (Q12809 whole entry, looked up): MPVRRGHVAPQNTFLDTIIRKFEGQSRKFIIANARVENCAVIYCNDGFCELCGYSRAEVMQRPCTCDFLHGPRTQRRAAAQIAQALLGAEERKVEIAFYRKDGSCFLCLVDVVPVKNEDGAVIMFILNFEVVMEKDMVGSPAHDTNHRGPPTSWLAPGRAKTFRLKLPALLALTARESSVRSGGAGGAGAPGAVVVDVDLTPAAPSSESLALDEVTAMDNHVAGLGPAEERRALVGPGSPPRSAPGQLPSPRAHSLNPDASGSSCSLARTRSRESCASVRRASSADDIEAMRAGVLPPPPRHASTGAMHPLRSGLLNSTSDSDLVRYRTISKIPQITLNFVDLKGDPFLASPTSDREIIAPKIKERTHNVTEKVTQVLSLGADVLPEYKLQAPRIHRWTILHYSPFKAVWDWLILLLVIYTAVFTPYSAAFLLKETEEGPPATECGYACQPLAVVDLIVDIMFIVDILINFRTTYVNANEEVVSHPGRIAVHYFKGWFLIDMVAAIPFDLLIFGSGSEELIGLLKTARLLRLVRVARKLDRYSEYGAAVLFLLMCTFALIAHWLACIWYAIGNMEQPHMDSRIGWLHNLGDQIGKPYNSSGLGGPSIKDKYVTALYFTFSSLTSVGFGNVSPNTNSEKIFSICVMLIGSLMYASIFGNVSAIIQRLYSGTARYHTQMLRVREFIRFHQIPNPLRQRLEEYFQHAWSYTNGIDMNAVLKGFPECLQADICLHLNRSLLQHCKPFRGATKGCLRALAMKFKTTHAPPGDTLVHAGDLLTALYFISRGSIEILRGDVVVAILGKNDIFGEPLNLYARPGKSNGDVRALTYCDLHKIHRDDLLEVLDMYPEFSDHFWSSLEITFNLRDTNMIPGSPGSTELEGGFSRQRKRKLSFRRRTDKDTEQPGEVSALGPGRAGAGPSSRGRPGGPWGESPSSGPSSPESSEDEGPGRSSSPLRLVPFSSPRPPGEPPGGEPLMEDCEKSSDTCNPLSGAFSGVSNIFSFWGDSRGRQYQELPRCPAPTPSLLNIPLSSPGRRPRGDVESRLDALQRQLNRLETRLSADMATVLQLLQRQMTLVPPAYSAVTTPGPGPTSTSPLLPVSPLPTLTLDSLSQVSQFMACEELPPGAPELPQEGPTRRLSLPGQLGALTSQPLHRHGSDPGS

Going from `CCN(CC)S(=O)(=O)c1ccc(C(=O)Nc2cc3oc4ccccc4c3cc2OC)cc1` to `COc1ccccc1N(Cc1cc(=O)[nH]c2ccccc12)C(=O)c1cccc([N+](=O)[O-])c1`, the “hERG current change (%, negative = inhibition) at 1uM” value rises from -2.97% to 12.5%.

Compared with `COC(=O)[C@@]1(Cc2ccc(OC)cc2)[C@@H]2C(=CC(=O)[C@H]2CC(=O)C(=O)N2CCCC2)CN1C(=O)c1ccccc1`, `COc1ccccc1NS(=O)(=O)c1cccc(C(=O)N2CCN(C(=O)c3ccco3)CC2)c1` is lower in “hERG current change (%, negative = inhibition) at 1uM” value: 7.72% for the first, 5.46% for the second.

Compared with `CCOC(=O)N1CCN(Cc2ccc(F)cc2F)CC1.O=C(O)C(=O)O`, `CCOC(=O)N1CCN(C(=O)c2ccc3c(c2)N(CC)CCS3)CC1` is lower in “hERG current change (%, negative = inhibition) at 1uM” value: 14.9% for the first, 1.1% for the second.

Going from `CCOC(=O)c1sc(NC(=O)CCN2C(=O)c3ccccc3C2=O)c(C(=O)OCC)c1C` to `CCOC(=O)c1[nH]c(COC(=O)CCOc2ccccc2OC)c(C(=O)OCC)c1C`, the “hERG current change (%, negative = inhibition) at 1uM” value falls from 26.1% to -0.0392%.

First: CC(=O)Nc1cc2cc(NS(=O)(=O)c3ccc(Cl)cc3)ccc2oc1=O
Second: CCCCNS(=O)(=O)c1ccc(NC(=O)c2cccs2)cc1
The “hERG current change (%, negative = inhibition) at 1uM” value of the first is higher: 16.5% for the first, 1.84% for the second.

Compared with `O=C(NC1CC1)C1CCCN1C(=O)NC1CCCCC1` (centres unmarked), `O=C(CN(C(=O)c1csnn1)c1ccccc1C(F)(F)F)NC1CCCCC1` is higher in “hERG current change (%, negative = inhibition) at 1uM” value: 9.27% for the first, 14.5% for the second.

Going from `COc1cccc2sc(N(CCN(C)C)C(=O)/C=C/c3cccs3)nc12.Cl` to `CN(C)c1ccc(NC(=O)CSc2nnc(-c3cccs3)n2Cc2ccco2)cc1`, the “hERG current change (%, negative = inhibition) at 1uM” value rises from -8.73% to -6.07%.

Compared with `Cc1ccc2nc(C)cc(OCC(=O)O)c2c1.Cl`, `COC(=O)CNC(=O)c1cc(-c2ccncc2)nc2ccccc12` is lower in “hERG current change (%, negative = inhibition) at 1uM” value: 25% for the first, 14.2% for the second.

First: O=C1CCCC(O)=C1C=Nc1cccc(C(F)(F)F)c1
Second: COC(=O)C1=C(C)NC(=O)C1(Nc1ccc(Cl)cn1)C(F)(F)F (centres unmarked)
The “hERG current change (%, negative = inhibition) at 1uM” value of the first is lower: -1.55% for the first, 10.5% for the second.

First: CCc1nnc(NC(=O)CSc2nnc(-c3ccccc3O)o2)s1
Second: COc1ccc(CN(C(=O)CSc2nnc(-c3ccccc3C)o2)c2ccc(F)cc2)cc1
The “hERG current change (%, negative = inhibition) at 1uM” value of the first is higher: 14.8% for the first, 8% for the second.

Going from `COc1ccc(C(=O)Nc2ncccc2C)cc1S(=O)(=O)N1CCOCC1` to `O=C(Nc1ccccn1)c1ccc(Cl)c(S(=O)(=O)N2CCCCCC2)c1`, the “hERG current change (%, negative = inhibition) at 1uM” value falls from 6.73% to -7.48%.

Going from `N#Cc1ccc(OCCOCCNC2CCCC2)cc1` to `c1ccc2c(c1)ncn2CCC1CCCCC1`, the “hERG current change (%, negative = inhibition) at 1uM” value falls from 3.88% to 0.862%.

Going from `CCOc1ccc(NC(=O)C2CC(=O)N(c3cc(C)cc(C)c3)C2)cc1` (centres unmarked) to `Cc1cccc(OCCCC(=O)Nc2ccc(S(=O)(=O)N3CCCC3)cc2)c1`, the “hERG current change (%, negative = inhibition) at 1uM” value rises from 1.34% to 6.93%.

Compared with `Cc1ccc(S(=O)(=O)/N=C/c2cc(Br)ccc2O)cc1`, `Br.COc1ccc(-c2csc(Nc3ccc(S(N)(=O)=O)cc3)n2)cc1` is lower in “hERG current change (%, negative = inhibition) at 1uM” value: 10.6% for the first, 8.56% for the second.

Going from `Clc1ccc(-c2nnsc2SCc2ccccc2)cc1` to `Fc1ccccc1CCNCc1ccccc1`, the “hERG current change (%, negative = inhibition) at 1uM” value rises from 3.26% to 17.8%.

Going from `Cc1ccc(-c2csc(C3=C(O)CN(NC(=O)c4ccc([N+](=O)[O-])cc4)C3=N)n2)cc1` to `CS(=O)(=O)N(Cc1ccccc1Cl)c1ccc(C(=O)NCc2ccccn2)cc1`, the “hERG current change (%, negative = inhibition) at 1uM” value rises from 4.51% to 5.7%.

Compared with `O=C(CCNS(=O)(=O)c1cccs1)N1CCc2ccccc2C1`, `O=C(CCn1cnc2ccccc2c1=O)Nc1ccc(S(=O)(=O)N2CCCC2)cc1` is higher in “hERG current change (%, negative = inhibition) at 1uM” value: 6.61% for the first, 17.7% for the second.

Going from `Cc1ccc(N(C(=O)c2csnn2)C(C(=O)NC2CCCC2)c2cccnc2)c(C)c1` (centres unmarked) to `CCOC(=O)c1sc2nc(C)nc(SCC(=O)NC(C)CCc3ccccc3)c2c1C` (centres unmarked), the “hERG current change (%, negative = inhibition) at 1uM” value falls from 9.95% to 8.54%.

Compared with `O=C(CSc1nnc(NC(=O)c2ccc(F)cc2)s1)NCc1ccco1`, `CC(C)CCOc1ccc(C(=O)NCC(c2cccs2)N2CCOCC2)cc1` (centres unmarked) is lower in “hERG current change (%, negative = inhibition) at 1uM” value: 23.6% for the first, 12.4% for the second.

Compared with `CCC(=O)N1CCc2cc(Br)cc(S(=O)(=O)NCCN3CCCC3)c21`, `CC1CCN(S(=O)(=O)c2ccc3c(c2)N(CC(=O)NCCCN2CC(C)CC(C)C2)C(=O)CS3)CC1` (centres unmarked) is lower in “hERG current change (%, negative = inhibition) at 1uM” value: 7.19% for the first, -9.25% for the second.

Going from `N#Cc1ccccc1OCC(=O)NCc1ccccc1CN1CCCC1` to `Cc1cccc(NC(=O)C(Cc2ccccc2)n2cccc2)c1` (centres unmarked), the “hERG current change (%, negative = inhibition) at 1uM” value falls from 0.116% to -9.38%.

Going from `CCC1CCCCN1C(=O)CSc1nnc(-c2ccc(Cl)cc2)o1` (centres unmarked) to `O=C(NC1=NCCS1)C1CCN(S(=O)(=O)c2ccc(Cl)cc2)CC1`, the “hERG current change (%, negative = inhibition) at 1uM” value falls from -1.62% to -4.26%.

Compared with `Cc1ccc(NC(=O)Cn2cccc2)cc1`, `CC(C)c1ccc(NC(=O)C2CC3CCC2C3)cc1` (centres unmarked) is higher in “hERG current change (%, negative = inhibition) at 1uM” value: -12% for the first, 10.9% for the second.

First: CCOc1ccc(S(=O)(=O)N2CCN(C(=O)CCC(=O)N3CCOCC3)CC2)cc1
Second: COc1cc([N+](=O)[O-])ccc1NC(=O)CN1CCOCC1
The “hERG current change (%, negative = inhibition) at 1uM” value of the first is lower: 7.16% for the first, 13.9% for the second.

Compared with `COCCn1c(C)cc(C(=O)COC(=O)c2[nH]c(C)c(C(C)=O)c2C)c1C`, `Cc1[nH]c2ccccc2c1N=Nc1cc(C(=O)O)cc(C(=O)O)c1` is higher in “hERG current change (%, negative = inhibition) at 1uM” value: -5.39% for the first, -1.45% for the second.

First: CCn1nc(C)c(/C=N/NC(=O)Cn2nnnc2N)c1C
Second: Nc1ccn(CC(=O)NCCNc2ccc([N+](=O)[O-])cn2)c(=O)n1
The “hERG current change (%, negative = inhibition) at 1uM” value of the first is higher: 16.8% for the first, 7.67% for the second.

First: CCc1ccc2nc3n[nH]c(N)c3cc2c1
Second: COC(=O)C1=C(C)NC(=S)NC1c1ccc(-c2cccc(Cl)c2)o1 (centres unmarked)
The “hERG current change (%, negative = inhibition) at 1uM” value of the first is higher: 10% for the first, 7.5% for the second.

First: CCCCCCOc1ccc(N2C(=O)CC(S/C(N)=N/N=C(\C)c3cccs3)C2=O)cc1 (centres unmarked)
Second: O=C1c2cccnc2C(=O)N1Cc1cccs1
The “hERG current change (%, negative = inhibition) at 1uM” value of the first is higher: 1.56% for the first, 1.3% for the second.
